Data as given in the supplement of paper PMC11741623.
The other results are listed elsewhere or left out. Interaction screen of human proteins with wild-type SARS-CoV-2 proteins by split-DHFR complementation in yeast, 1 µg/mL methotrexate. Value = fitness of the pair (three or more lineages) minus that of the viral protein without a human partner, on a scale set by negative (0) and fused positive (1) controls, mean of up to three cultures; higher = more likely to interact. Active = false discovery rate below 0.05 (one-sided t-test) in at least one culture. Nearly all pairs are not hits, and differences among them are mostly noise (correlation between cultures about 0.3); most hits were seen in one culture only. Human sequences are the Swiss-Prot entries looked up by gene name; the clone may be another isoform. NSP2 values were corrected by the authors for a growth advantage. Listed are human proteins with a hit and a random twelfth of the others.

Assays:
Experiment in all cases: yeast fitness gain over the viral ORF with no human partner (scaled fitness); higher = more likely to interact
SARS-CoV-2 NSP1 = target: SARS-CoV-2 NSP1
Description: (§1)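 Split mouse DHFR complementation in pooled diploid yeast: human ORFeome clones carry one fragment and viral ORFs the other; barcoded lineages compete in 1 µg/mL methotrexate and fitness is read by barcode sequencing in up to three cultures.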

SARS-CoV-2 NSP13 = target: SARS-CoV-2 NSP13
Description: as §1

SARS-CoV-2 NSP2 = target: SARS-CoV-2 NSP2
Description: as §1

SARS-CoV-2 NSP7 = target: SARS-CoV-2 NSP7
Description: as §1

SARS-CoV-2 ORF3A = target: SARS-CoV-2 ORF3A
Description: as §1

SARS-CoV-2 ORF3B = target: SARS-CoV-2 ORF3B
Description: as §1

SARS-CoV-2 ORF7B = target: SARS-CoV-2 ORF7B
Description: as §1

SARS-CoV-2 ORF8 = target: SARS-CoV-2 ORF8
Description: as §1

SARS-CoV-2 NSP10 = target: SARS-CoV-2 NSP10
Description: as §1

SARS-CoV-2 NSP12 = target: SARS-CoV-2 NSP12
Description: as §1

SARS-CoV-2 NSP15 = target: SARS-CoV-2 NSP15
Description: as §1

SARS-CoV-2 NSP4 = target: SARS-CoV-2 NSP4
Description: as §1

SARS-CoV-2 NSP5 = target: SARS-CoV-2 NSP5
Description: as §1

SARS-CoV-2 NSP6 = target: SARS-CoV-2 NSP6
Description: as §1

SARS-CoV-2 ORF10 = target: SARS-CoV-2 ORF10
Description: as §1

SARS-CoV-2 ORF6 = target: SARS-CoV-2 ORF6
Description: as §1

SARS-CoV-2 ORF7A = target: SARS-CoV-2 ORF7A
Description: as §1

SARS-CoV-2 ORF9B = target: SARS-CoV-2 ORF9B
Description: as §1

[1] = target: SARS-CoV-2 ORF9Bwu (the 73-codon ORF)
Description: as §1

SARS-CoV-2 S = target: SARS-CoV-2 S
Description: as §1

SARS-CoV-2 NSP8 = target: SARS-CoV-2 NSP8
Description: as §1

SARS-CoV-2 NSP9 = target: SARS-CoV-2 NSP9
Description: as §1

Measured: yeast fitness gain

B1: FAM24B, Q8N5W8 (protein)
chain: MPVIAGGILAALLLLIVVVLCLYFKIHNALKAAKEPEAVAVKNHNPDKVWWAKNSQAKTIATESCPALQCCEGYRMCASFDSLPPCCCDINEGL
inactive: SARS-CoV-2 NSP1 = -0.00445 | SARS-CoV-2 NSP13 = 0.0262 | SARS-CoV-2 NSP2 = -0.127 | SARS-CoV-2 NSP7 = 0.11 | SARS-CoV-2 ORF3A 0.0373 | SARS-CoV-2 ORF3B -0.0626 | SARS-CoV-2 ORF7B -0.0716 | SARS-CoV-2 ORF8 = -0.113

B2: CD52, P31358 (protein)
chain: MKRFLFLLLTISLLVMVQIQTGLSGQNDTSQTSSPSASSNISGGIFLFFVANAIIHLFCFS
inactive: SARS-CoV-2 NSP1 = -0.0784 | SARS-CoV-2 NSP10 = 0.026 | SARS-CoV-2 NSP12 = -0.173 | SARS-CoV-2 NSP13 = -0.0509 | SARS-CoV-2 NSP15 = 0.0938 | SARS-CoV-2 NSP2 = -0.202 | SARS-CoV-2 NSP4 = -0.273 | SARS-CoV-2 NSP5 = -0.0678 | SARS-CoV-2 NSP6 = 0.0345 | SARS-CoV-2 NSP7 = -0.0377 | SARS-CoV-2 ORF10 = 0.0331 | SARS-CoV-2 ORF3B -0.0827 | SARS-CoV-2 ORF6 = -0.0183 | SARS-CoV-2 ORF7A -0.0334 | SARS-CoV-2 ORF7B 0.241 | SARS-CoV-2 ORF8 = 0.0333 | SARS-CoV-2 ORF9B 0.0266 | [1] 0.0797 | SARS-CoV-2 S 0.0456

B3: SERPINB10, P48595 (protein)
chain: MDSLATSINQFALELSKKLAESAQGKNIFFSSWSISTSLTIVYLGAKGTTAAQMAQVLQFNRDQGVKCDPESEKKRKMEFNLSNSEEIHSDFQTLISEILKPNDDYLLKTANAIYGEKTYAFHNKYLEDMKTYFGAEPQPVNFVEASDQIRKDINSWVERQTEGKIQNLLPDDSVDSTTRMILVNALYFKGIWEHQFLVQNTTEKPFRINETTSKPVQMMFMKKKLHIFHIEKPKAVGLQLYYKSRDLSLLILLPEDINGLEQLEKAITYEKLNEWTSADMMELYEVQLHLPKFKLEDSYDLKSTLSSMGMSDAFSQSKADFSGMSSARNLFLSNVFHKAFVEINEQGTEAAAGSGSEIDIRIRVPSIEFNANHPFLFFIRHNKTNTILFYGRLCSP
inactive: SARS-CoV-2 NSP1 = -0.315 | SARS-CoV-2 NSP12 = 0.0414 | SARS-CoV-2 NSP13 = -0.166 | SARS-CoV-2 NSP2 = -0.601 | SARS-CoV-2 NSP6 = -0.171 | SARS-CoV-2 NSP7 = 0.0284 | SARS-CoV-2 ORF10 = -0.054 | SARS-CoV-2 ORF3B -0.0523 | SARS-CoV-2 ORF6 = -0.199 | SARS-CoV-2 ORF7A -0.00956 | SARS-CoV-2 ORF8 = 0.0615 | SARS-CoV-2 ORF9B -0.0578

B4: FBXO16, Q8IX29 (protein)
chain: MMAFAPPKNTDGPKMQTKMSTWTPLNHQLLNDRVFEERRALLGKWFDKWTDSQRRRILTGLLERCSLSQQKFCCRKLQEKIPAEALDFTTKLPRVLSLYIFSFLDPRSLCRCAQVCWHWKNLAELDQLWMLKCLRFNWYINFSPTPFEQGIWKKHYIQMVKELHITKPKTPPKDGFVIADVQLVTSNSPEEKQSPLSAFRSSSSLRKKNNSGEKALPPWRSSDKHPTDIIRFNYLDNRDPMETVQQGRRKRNQMTPDFSRQSHDKKNKLQDRTRLRKAQSMMSRRNPFPLCP
inactive: SARS-CoV-2 NSP1 = 0.0259 | SARS-CoV-2 NSP10 = -0.0202 | SARS-CoV-2 NSP12 = -0.0393 | SARS-CoV-2 NSP13 = -0.194 | SARS-CoV-2 NSP15 = -0.0209 | SARS-CoV-2 NSP2 = -0.0234 | SARS-CoV-2 NSP6 = -0.0336 | SARS-CoV-2 NSP8 = 0.136 | SARS-CoV-2 NSP9 = -0.0982 | SARS-CoV-2 ORF3A 0.0167 | SARS-CoV-2 ORF6 = -0.1 | SARS-CoV-2 ORF7A -0.0277 | SARS-CoV-2 ORF8 = 0.0415 | SARS-CoV-2 ORF9B -0.169

B5: CCDC172, P0C7W6 (protein)
chain: MSLESLFQHIIFTEHQAEESRRLMREVRSEITRCREKIKKATEELNEEKIKLESKVQQFFEKSFFLQLLKAHENALEKQYSEITNHRNMLLQTFEAIKKQMIEEEDKFIKEITDFNNDYEITKKRELLMKENVKIEISDLENQANMLKSEMKSMEHDSSQLNELQKQKSELIQELFTLQRKLKVFEDEENESICTTKYLEAEKIKISEKPQNDTECLRLKKELELYKEDDMESVYEALQTEIEFLELTLAQKDLQESK
inactive: SARS-CoV-2 NSP1 = 0.00989 | SARS-CoV-2 NSP10 = -0.13 | SARS-CoV-2 NSP12 = -0.136 | SARS-CoV-2 NSP13 = -0.766 | SARS-CoV-2 NSP2 = 0.0646 | SARS-CoV-2 NSP6 = -0.0877 | SARS-CoV-2 NSP7 = 0.036 | SARS-CoV-2 ORF9B -0.488

B6: HIF1AN, Q9NWT6 (protein)
chain: MAATAAEAVASGSGEPREEAGALGPAWDESQLRSYSFPTRPIPRLSQSDPRAEELIENEEPVVLTDTNLVYPALKWDLEYLQENIGNGDFSVYSASTHKFLYYDEKKMANFQNFKPRSNREEMKFHEFVEKLQDIQQRGGEERLYLQQTLNDTVGRKIVMDFLGFNWNWINKQQGKRGWGQLTSNLLLIGMEGNVTPAHYDEQQNFFAQIKGYKRCILFPPDQFECLYPYPVHHPCDRQSQVDFDNPDYERFPNFQNVVGYETVVGPGDVLYIPMYWWHHIESLLNGGITITVNFWYKGAPTPKRIEYPLKAHQKVAIMRNIEKMLGEALGNPQEVGPLLNTMIKGRYN
inactive: SARS-CoV-2 NSP1 = -0.112 | SARS-CoV-2 NSP13 = -0.0241 | SARS-CoV-2 ORF7B -0.158
